# Laboratory results: PubChem BioAssay (Tox21)
# Where “and” joins values, the source holds several entries; their conditions need not be identical. Equal entries are not always repeated. Inconclusive means that the source gave no clear call. Such entries were picked first, then a sample of the others. Potencies of inconclusive entries are doubtful fits and often do not repeat. More than one record can exist for a structure, and the calls need not agree. Calls of active or inactive are those of the source. Unless noted, calls follow the shape of the dose curve; as a rule, active = well fitted curve in the direction sought with a large enough effect in the repeat runs; inconclusive = weak or mixed curves; inactive = no such curve, though single readings can be large; an effect the other way counts as inactive or inconclusive.
# System: not listed separately
# Test: qHTS assay to identify small molecule agonists of the TGF-beta/Smad signaling pathway (AID 1346859; active = well fitted activation curve with a large enough effect in the signal ratio in the repeat runs, not every such curve was filed as active; inconclusive = weak or mixed curves; the % refers to the signal ratio; as to activation: % is scaled to controls: 0 for no effect and ±100 for the full control effect)
# Settings: SBE-bla HEK293T, TGF-beta/Smad beta-lactamase reporter, 5 h; activation: at 76.8 µM (top of the series)
# Method in brief: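 After overnight seeding, SBE-bla HEK 293T cells are dosed with compounds in DMSO and kept 5 hr at 37 C, 5% CO2. LiveBLAzer-type FRET substrate is then applied for 2 hr at room temperature.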
# Potency is read from the fitted curve at half-maximal effect; tags tell the direction and shape of the fitted curve or compound fluorescence and quenching.
SMILES,Potency,activation
CC(=O)Nc1ccc2c(c1)Cc1cc(NC(C)=O)ccc1-2,"inconclusive: 27.5 µM [rising, partial curve, poor fit]",–
C=C1CC[C@H](O)CC1=C/C=C1\CCC[C@]2(C)[C@@H]([C@H](C)/C=C/[C@H](C)C(C)C)CC[C@@H]12,"inconclusive: 38.9 µM [rising, partial curve]",–
Cc1ccc(C(=O)Oc2ccc(C(O)CNC(C)(C)C)cc2OC(=O)c2ccc(C)cc2)cc1 (stereo not drawn),"inconclusive: 23.9 µM [rising, partial curve, poor fit]",–
N=C(N)c1ccc(OCCCCCOc2ccc(C(=N)N)cc2)cc1,"inconclusive: 61.4 µM [rising, single point]",–
C=CCCCCCCCCC(=O)OCCCC,–,inactive: -0.294%
CCCCCCC[N+](CC)(CC)CCCCc1ccc(Cl)cc1,"inconclusive: 10.7 µM [rising, partial curve]",–
c1ccc(C[P+](c2ccccc2)(c2ccccc2)c2ccccc2)cc1,"inconclusive: 27.5 µM [rising, partial curve]",–
COCc1c(C(C)C)nc(C(C)C)c(/C=C/[C@@H](O)C[C@@H](O)CC(=O)O)c1-c1ccc(F)cc1,"inconclusive: 7.56 µM [rising, partial curve]",–
CC(=O)S[C@@H]1CC2=CC(=O)CC[C@]2(C)[C@H]2CC[C@@]3(C)[C@@H](CC[C@@]34CCC(=O)O4)[C@H]12,"inconclusive: 19.5 µM [rising, partial curve]",–
CCN(CC)C(=O)/C(C#N)=C/c1cc(O)c(O)c([N+](=O)[O-])c1,"inconclusive: 10.7 µM [rising, full curve]",–
CO[C@H]1C=CO[C@@]2(C)Oc3c(C)c(O)c4c(O)c(c5c(c4c3C2=O)=NC2(CCN(CC(C)C)CC2)N=5)NC(=O)/C(C)=C\C=C/[C@H](C)[C@H](O)[C@@H](C)[C@@H](O)[C@@H](C)[C@H](OC(C)=O)[C@@H]1C,"inconclusive: 21.4 µM [rising, partial curve]",–
OCCNCc1ccccc1,–,inactive: 0.095%

# Molecular target: Thyrotropin-releasing hormone receptor (Homo sapiens) (UniProt P34981)
# UniProt P34981, sequence (P34981 whole entry, looked up): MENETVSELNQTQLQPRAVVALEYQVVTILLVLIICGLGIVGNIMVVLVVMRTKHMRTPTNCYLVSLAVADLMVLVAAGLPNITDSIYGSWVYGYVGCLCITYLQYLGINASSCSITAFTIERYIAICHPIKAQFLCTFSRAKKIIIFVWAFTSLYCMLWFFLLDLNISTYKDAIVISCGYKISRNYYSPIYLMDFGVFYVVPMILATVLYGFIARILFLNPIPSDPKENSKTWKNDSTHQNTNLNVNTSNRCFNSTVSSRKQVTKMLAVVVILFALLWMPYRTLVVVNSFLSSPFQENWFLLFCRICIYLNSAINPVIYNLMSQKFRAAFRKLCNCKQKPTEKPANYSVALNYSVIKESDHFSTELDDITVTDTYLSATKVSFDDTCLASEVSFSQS
# Test: qHTS assay to identify small molecule antagonists of the thyrotropin-releasing hormone receptor (TRHR) signaling pathway (AID 1346877; active = well fitted inhibition curve with a large enough effect in the repeat runs, not every such curve was filed as active; inconclusive = weak or mixed curves; as to activity, negative = inhibition: % is scaled to controls: 0 for no effect and ±100 for the full control effect)
# Settings: TRHR-HEK293, TRH-induced calcium fluorescence, antagonist mode; series mostly up to 51.3 µM; activity, negative = inhibition: at the top concentration
# Method in brief: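 Intracellular calcium fluorescence, read kinetically every second over 3 min, reports TRH-evoked signalling in HEK293 cells carrying TRHR. Test compounds were added 5 min ahead of a 1 nM TRH challenge.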
SMILES,"activity, negative = inhibition",Potency
CCCCCCC[N+](CC)(CC)CCCCc1ccc(Cl)cc1,inactive: 2.65% [at 23.6 µM],–
O=C(O)CC(C(=O)O)S(=O)(=O)O (stereo not drawn),inactive: 1.41%,–
COc1ccc(CCN(C)CCCC(C#N)(c2cc(OC)c(OC)c(OC)c2)C(C)C)cc1OC (stereo not drawn),inactive: 2.96% [at 23.6 µM],–
CCOC(=O)/C=C\C(=O)OCC,–,"inconclusive: 0.0426 µM [inhibitor, full curve]"

# System: not listed separately
# Test: qHTS assay to identify small molecule antagonists of the TGF-beta/Smad signaling pathway (AID 1346924; active = well fitted inhibition curve with a large enough effect in the signal ratio in the repeat runs, not every such curve was filed as active; inconclusive = weak or mixed curves; the % refers to the signal ratio)
# Settings: SBE-bla HEK293T, TGF-beta/Smad reporter, beta-lactamase ratio; activity, negative = inhibition: at 76.8 µM (top of the series) unless noted
# Method in brief: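 SBE-bla HEK 293T cells were plated overnight, then received compound in DMSO plus TGF-beta1 (added as a 0.25 ng/mL solution) and were incubated 5 h at 37 C. Beta-lactamase reporter activity was read after 2 h at room temperature with LiveBLAzer B/G FRET substrate (ex 405, em 460/530 nm).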
SMILES,"activity, negative = inhibition",Potency
Cc1ccc(C(=O)Oc2ccc(C(O)CNC(C)(C)C)cc2OC(=O)c2ccc(C)cc2)cc1 (stereo not drawn),inconclusive: -9.92% [at 35.3 µM],–
CCCCCCC[N+](CC)(CC)CCCCc1ccc(Cl)cc1,–,"inconclusive: 16.9 µM [rising, partial curve]"
c1ccc(C[P+](c2ccccc2)(c2ccccc2)c2ccccc2)cc1,–,inconclusive: 15.5 µM
COCc1c(C(C)C)nc(C(C)C)c(/C=C/[C@@H](O)C[C@@H](O)CC(=O)O)c1-c1ccc(F)cc1,inconclusive: 2.9% [at 35.3 µM] and inconclusive: -1.48% [at 35.3 µM],–
CC(=O)S[C@@H]1CC2=CC(=O)CC[C@]2(C)[C@H]2CC[C@@]3(C)[C@@H](CC[C@@]34CCC(=O)O4)[C@H]12,–,inconclusive: 30.9 µM
CCN(CC)C(=O)/C(C#N)=C/c1cc(O)c(O)c([N+](=O)[O-])c1,–,"inconclusive: 19 µM [rising, partial curve, poor fit]"

# System: not listed separately
# Test: Human pregnane X receptor (PXR) small molecule agonists, qHTS cell viability counter screen (AID 1346977); also: nearly all actives have a fitted effect of over 50% in size; as to activity change, negative = cytotoxicity: % is scaled to controls: 0 for no effect and ±100 for the full control effect
# Settings: PXR-Luc HepG2 viability, CellTiter-Fluor, 24 h; series mostly up to 92.4 µM; activity change, negative = cytotoxicity: at the top concentration
# Method in brief: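 Viability counter screen: CellTiter-Fluor signal in PXR-Luc HepG2 cells, 24hr compound exposure, 37C, 5% CO2.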
SMILES,Potency,"activity change, negative = cytotoxicity"
C=C1CC[C@H](O)CC1=C/C=C1\CCC[C@]2(C)[C@@H]([C@H](C)/C=C/[C@H](C)C(C)C)CC[C@@H]12,"inconclusive: 68.6 µM [cytotoxic, single point]",–
C(=C\c1ccccc1)/CN1CCN(C(c2ccccc2)c2ccccc2)CC1,"inconclusive: 29.8 µM [cytotoxic, single point]",–
CC/C=C/CCO,–,inactive: 9.51%
CC12CC3CC(C)(C1)CC(N)(C3)C2,"inconclusive: 33.5 µM [cytotoxic, single point]",–
Cc1c(N)cccc1C(F)(F)F,–,inactive: 0.0187% [at 42.5 µM]
CCN(CC)C(=O)/C(C#N)=C/c1cc(O)c(O)c([N+](=O)[O-])c1,"inconclusive: 33.5 µM [cytotoxic, single point]",–
CO[C@H]1C=CO[C@@]2(C)Oc3c(C)c(O)c4c(O)c(c5c(c4c3C2=O)=NC2(CCN(CC(C)C)CC2)N=5)NC(=O)/C(C)=C\C=C/[C@H](C)[C@H](O)[C@@H](C)[C@@H](O)[C@@H](C)[C@H](OC(C)=O)[C@@H]1C,active: 30 µM,–
CN(C)CCCN1c2ccccc2CCc2ccccc21,active: 30.6 µM and active: 23.7 µM,–

# System: not listed separately
# Test: Caspase-3/7 induction in CHO-K1 cells by small molecules, qHTS cell viability counter screen (AID 1346979); also: nearly all actives have a fitted effect of over 35% in size; as to activity change, negative = cytotoxicity: % is scaled to controls: 0 for no effect and ±100 for the full control effect
# Settings: CellTiter-Fluor fluorescence, 17 h; activity change, negative = cytotoxicity: at 92.4 µM (top of the series)
# Method in brief: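 Viability readout by fluorescence (CellTiter-Fluor) on wild-type CHO-K1 cells exposed for 16hr at 37C and 5% CO2 to compounds delivered in DMSO; reagent incubated 1hr before reading.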
SMILES,Potency,"activity change, negative = cytotoxicity"
CN1CCCCC1CCN1c2ccccc2Sc2ccc(S(C)=O)cc21 (stereo not drawn),"inconclusive: 37.6 µM [cytotoxic, single point]",–
C=C1CC[C@H](O)CC1=C/C=C1\CCC[C@]2(C)[C@@H]([C@H](C)/C=C/[C@H](C)C(C)C)CC[C@@H]12,active: 54 µM and active: 48.6 µM,–
C(=C\c1ccccc1)/CN1CCN(C(c2ccccc2)c2ccccc2)CC1,"inconclusive: 18.8 µM [cytotoxic, partial curve, poor fit]",–
N=C(N)c1ccc(OCCCCCOc2ccc(C(=N)N)cc2)cc1,"inconclusive: 58.4 µM [cytotoxic, single point]",–
C=CCCCCCCCCC(=O)OCCCC,–,inactive: 0.836%
CCCCCCC[N+](CC)(CC)CCCCc1ccc(Cl)cc1,"inconclusive: 29.8 µM [cytotoxic, single point]",–
COCc1c(C(C)C)nc(C(C)C)c(/C=C/[C@@H](O)C[C@@H](O)CC(=O)O)c1-c1ccc(F)cc1,"inconclusive: 237 nM [cytotoxic, full curve] and inconclusive: 191 nM [cytotoxic, full curve]",–
CC(=O)S[C@@H]1CC2=CC(=O)CC[C@]2(C)[C@H]2CC[C@@]3(C)[C@@H](CC[C@@]34CCC(=O)O4)[C@H]12,"inconclusive: 54.5 µM [cytotoxic, partial curve]",–
CCN(CC)C(=O)/C(C#N)=C/c1cc(O)c(O)c([N+](=O)[O-])c1,active: 26.6 µM,–
CO[C@H]1C=CO[C@@]2(C)Oc3c(C)c(O)c4c(O)c(c5c(c4c3C2=O)=NC2(CCN(CC(C)C)CC2)N=5)NC(=O)/C(C)=C\C=C/[C@H](C)[C@H](O)[C@@H](C)[C@@H](O)[C@@H](C)[C@H](OC(C)=O)[C@@H]1C,active: 53.3 µM,–
CC/C=C\CCO,–,inactive: 4.26%
CN(C)CCCN1c2ccccc2CCc2ccccc21,"inconclusive: 68.6 µM [cytotoxic, single point] and inconclusive: 33.5 µM [cytotoxic, partial curve, poor fit]",–
CCN(CC)C(=O)N(CC)CC,–,inactive: 1.57%
